The text below walks through data of PubChem BioAssay AID270 (DTP/NCI, 2004).

Inconclusive results are not listed. The source holds more than one record for some entries. The list is limited to them. The source may hold further records. The records of an entry do not match, cause unknown; some may be repeats, others may stem from another dose, organism or construct than stated. A tag in brackets gives the origin of a value. Letters hold for one entry only.

This test has as its system BDF1 mice, s.c. Lewis lung carcinoma, T/C %. Briefly: NCI In Vivo Anticancer Drug Screen. Data for tumor model Lewis Lung Carcinoma (subcutaneous) in B6D2F1 (BDF1) mice. How it is done:
The antitumor activity of compounds was measured in mice bearing transplantable tumors. Survival or tumor size were measured and the results are expressed as the measurement made in the treated group (T) divided by the measurement made in the vehicle treated control group (C). The tumor model used in this assay is Lewis Lung Carcinoma (subcutaneous) in B6D2F1 (BDF1) mice

`CC1CCC(NC(=O)N(CCCl)N=O)CC1` (stereo not drawn): the T/C (endpoint: median survival time, dose: 4.0 mg/kg/injection, schedule: Q01DX001 (ip), vehicle: saline + alcohol, higher = longer survival) is 106 % of control and 156 % of control. On to `O=NN(CCCl)C(=O)N[C@H]1CCCC[C@@H]1Cl`, for which the T/C reads like this: (endpoint: median survival time, dose: 15.0 mg/kg/injection, schedule: Q04DX004 (ip), vehicle: gum acacia, higher = longer survival) 104 % of control and 153 % of control; (endpoint: median survival time, dose: 27.0 mg/kg/injection, schedule: Q07DX002 (ip), vehicle: gum acacia, higher = longer survival) 109 % of control and 151 % of control; (endpoint: median survival time, dose: 36.0 mg/kg/injection, schedule: Q07DX002 (ip), vehicle: gum acacia, higher = longer survival) 112 % of control and 172 % of control.

For `O=NN(CCCl)C(=O)NCCCl`, the T/C (endpoint: median survival time, dose: 10.0 mg/kg/injection, schedule: Q01DX005 (ip), vehicle: saline + alcohol, higher = longer survival) was 95 % of control and 198 % of control; the T/C (endpoint: median survival time, dose: 40.0 mg/kg/injection, schedule: Q01DX001 (ip), vehicle: saline + alcohol, higher = longer survival) is on record as 95 % of control, 105 % of control, 172 % of control. Turning to `CC(CN1CC(=O)NC(=O)C1)N1CC(=O)NC(=O)C1` (stereo not drawn), the T/C was 9 % of control and 47 % of control (endpoint: median tumor weight (est.), dose: 7.0 mg/kg/injection, schedule: Q03HX032 (ip), vehicle: saline, higher = larger tumour); 26 % of control and 67 % of control (endpoint: median tumor weight (est.), dose: 45.0 mg/kg/injection, schedule: Q01DX011 (ip), vehicle: saline, higher = larger tumour).

Turning to `O=NN(CCCl)C(=O)NC1CCC(NC(=O)N(CCCl)N=O)CC1` (stereo not drawn), where the note is “endpoint: median survival time, dose: 60.0 mg/kg/injection, schedule: Q04DX004 (ip), vehicle: saline with Tween-80, higher = longer survival”, the T/C is 112 % of control and 171 % of control.

For `O=NN(CCCl)C(=O)NC1CCS(=O)(=O)CC1`, the T/C (endpoint: median survival time, dose: 5.0 mg/kg/injection, schedule: Q04DX004 (ip), vehicle: carboxymethylcellulose (CMC), higher = longer survival) was 105 % of control and 193 % of control. As to `CCOC(=O)C1CCC(NC(=O)N(CCCl)N=O)CC1` (stereo not drawn), the T/C (endpoint: median survival time, dose: 8.0 mg/kg/injection, schedule: Q04DX004 (ip), vehicle: gum acacia, higher = longer survival) was 103 % of control and 193 % of control.

Turning to `O=NN(CCCl)C(=O)NC1CCC(C(=O)O)CC1` (stereo not drawn), the T/C (endpoint: median survival time, dose: 45.0 mg/kg/injection, schedule: Q01DX001 (ip), vehicle: saline with Tween-80, higher = longer survival) was 115 % of control, 288 % of control [sample A] and 86 % of control [sample B]. Consider `O=P1(N(CCCl)CCCl)NCCCO1` (stereo not drawn), for which the T/C (endpoint: median survival time, dose: 30.0 mg/kg/injection, schedule: Q01DX005 (ip), vehicle: saline, higher = longer survival) is 113 % of control and 151 % of control.
